Laboratory results: PubChem BioAssay AID1963576 (National Center for Advancing Translational Sciences (NCATS), 2024)
About 60 (0.1%) of roughly 46,000 compounds were called active. The shares of active, inactive and inconclusive entries below differ from those in the screen. The call rests on the fitted dose curve; in most records, active means well fitted inhibition curve with a large enough effect; inconclusive means small, poorly fitted or top-dose-only effect; inactive means no such curve, though single readings can be large or run the other way. Potencies of inconclusive entries are left out as doubtful fits.

Assay: Primary qHTS assay for Inhibitors of ovarian cancer metastasis using an organotypic tumor microenvironment (TME) model. Further: nearly all actives have a fitted effect of over 65% in size.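 On Potency: count of GFP cancer cells still attached after washing and fixation.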
Conditions: SKOV3ip1-GFP adhesion/invasion on 3D omental model, fluorescence; series mostly up to 45.8 µM
Procedure, shortened: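 A 3D layer of primary human omental fibroblasts, mesothelial cells, fibronectin and collagen I, grown 48 hr, received SKOV3ip1-GFP cells in serum-free medium plus compounds at 0.36-46 umol/L. After 2 hr RT and 16 hr 37 C, fixed adherent GFP cells were counted; normalized to DMSO and tomatine.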
Potency means the concentration at half of the fitted maximal effect; tags describe the fitted curve by direction and shape.

Question: Which Potency does the source give for `Cc1ccccc1OCCCn1c(CCNC(=O)C2CCCCC2)nc2ccccc21` here?
Answer: inconclusive [inhibitor, single point]

Question: With `COCCN1Cc2cccc(C(=O)Nc3ccc(C)c(F)c3)c2C1=O` as the molecule, how does the Potency read?
Answer: inactive

Question: For `Cc1ccccc1NC(=O)N1CCc2cc(S(=O)(=O)N3CCC(C)CC3)ccc21`, which Potency is on record?
Answer: inactive

Question: With `CC1=C(c2ccc(C)cc2)S(=O)(=O)NC1=NCCCN1CCN(c2cc(C)ccc2C)CC1` as the molecule, how does the Potency read?
Answer: inconclusive [inhibitor, full curve, poor fit]

Question: Which Potency does the source give for `COC(=O)c1ccccc1NC(=O)c1nc(S(=O)(=O)Cc2cccc(C)c2)ncc1Cl` here?
Answer: inactive

Question: With `O=C(COc1ccc([N+](=O)[O-])cc1)NCC1(N2CCOCC2)CCCCC1` as the molecule, how does the Potency read?
Answer: inconclusive [inhibitor, single point]

Question: Which Potency does the source give for `Cc1ccc(-n2nc(C(=O)NCc3ccc(F)cc3Cl)c3c4ccccc4n(C)c3c2=O)cc1` here?
Answer: inconclusive [inhibitor, single point]

Question: With `O=C1c2c(O)ccc(O)c2C(=O)c2c(NCCNCCO)ccc(NCCNCCO)c21` as the molecule, how does the Potency read?
Answer: inconclusive [inhibitor, partial curve]

Question: Which Potency does the source give for `Cc1ccc(NC(=O)CN(c2ccc(C)cc2)S(=O)(=O)c2cccc3nonc23)cc1` here?
Answer: inconclusive [inhibitor, full curve, poor fit]

Question: With `O=S(=O)(c1ccc2nc(Nc3ccc(F)cc3)ccc2c1)N1CCCC1` as the molecule, how does the Potency read?
Answer: inactive

Question: Which Potency does the source give for `CCc1ccc(OCc2ccccc2C(=O)Nc2ccc3nc(C)cc(N)c3c2)cc1` here?
Answer: inconclusive [inhibitor, single point]

Question: Which Potency does the source give for `CCN(C(=O)Cn1c(=O)n(Cc2ccc3c(c2)OCO3)c(=O)c2ccc(C(=O)NC3CCCCC3)cc21)c1cccc(C)c1` here?
Answer: inactive

Question: For `COc1ccc(N2CCN(CCCNC(=O)c3ccc4nc(Cc5ccccc5)oc4c3)CC2)cc1`, which Potency is on record?
Answer: inconclusive [inhibitor, single point]

Question: For `Clc1cccc(-n2ncc3c(NCCCN4CCOCC4)ncnc32)c1`, which Potency is on record?
Answer: inconclusive [inhibitor, single point]

Question: For `CCOc1ccccc1C(=O)NCc1ccc2c(c1)CCN2C(=O)c1ccccc1`, which Potency is on record?
Answer: inconclusive [inhibitor, single point]

Question: For `Cc1ccc(C2CC(=O)n3nc(-c4cccc(C)c4)nc3S2)cc1` (stereo not drawn), which Potency is on record?
Answer: inconclusive [inhibitor, partial curve, poor fit]

Question: With `CCc1nc2ccc(C(=O)NCCc3ccc(OC)cc3OC)cc2nc1CC` as the molecule, how does the Potency read?
Answer: inconclusive [inhibitor, single point]

Question: For `CCOc1ccc(C(=O)Nc2ccc3nc4c(c(Nc5ccccc5OC)c3c2)CCCC4)cc1`, which Potency is on record?
Answer: inconclusive [inhibitor, full curve, poor fit]
